Reference: the supplement of paper PMC9446081
Hit rate of the full screen: of about 39,000 compounds, about 220 (0.56%) showed activity. The list shows a part of the results.

test system: Escherichia coli K-12 BW25113; experiment: relative growth (OD600 normalised to plate interquartile mean) (fraction); higher = less growth inhibition, active = 0.2 or less; details: 50 µM; LB; incubation time: overnight (16-24 h)
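Also: static incubation at 37 °C against the wild-type strain, values averaged over two biological replicates.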

Question: `C[C@@H]1CN([C@@H](C)CO)C(=O)c2cc(Br)cnc2O[C@H]1CN(C)S(=O)(=O)c1cccs1` was tested. Which relative growth did it give?
Answer: The relative growth was inactive: 1.02.

Question: `C[C@H](CO)N1C[C@H](C)[C@@H](CN(C)C(=O)c2cccc(F)c2)Oc2cc(-c3cncnc3)ccc2S1(=O)=O` was tested. Which relative growth did it give?
Answer: Its relative growth is inactive: 1.01.

Question: `C[C@@H]1CN([C@@H](C)CO)C(=O)c2cc(NS(=O)(=O)c3ccc(Cl)cc3)ccc2O[C@@H](C)CCCCO[C@H]1CN(C)S(=O)(=O)c1ccc(F)cc1` was tested. Which relative growth did it give?
Answer: Its relative growth is inactive: 1.02.

Question: With `C[C@H](CO)N1C[C@H](C)[C@H](CN(C)CC2CCCCC2)Oc2c(NC(=O)Nc3cccc4ccccc34)cccc2C1=O` as the molecule, how does the relative growth read?
Answer: Its relative growth is inactive: 1.

Question: Which relative growth does the source give for `Cc1ccc(S(=O)(=O)Nc2ccc3c(c2)C(=O)N([C@@H](C)CO)C[C@@H](C)[C@@H](CN(C)CC2CC2)O3)cc1` here?
Answer: Its relative growth is inactive: 1.01.

Question: How did the relative growth turn out when `C[C@H]1CN([C@@H](C)CO)C(=O)c2cc(NC(=O)Cc3cn(C)c4ccccc34)ccc2O[C@@H]1CN(C)C(=O)Nc1ccc(C(F)(F)F)cc1` was run?
Answer: The relative growth was inactive: 0.997.

Question: Which relative growth does the source give for `COc1ccc(NC(=O)Nc2cccc3c2O[C@H](CN(C)S(=O)(=O)c2cn(C)cn2)[C@@H](C)CN([C@@H](C)CO)C3=O)cc1` here?
Answer: The relative growth was inactive: 1.

Question: Which relative growth does the source give for `C[C@@H]1CN([C@@H](C)CO)C(=O)c2cccc(NC(=O)c3ccncc3)c2O[C@@H]1CN(C)Cc1ccc(C(=O)O)cc1` here?
Answer: Its relative growth is inactive: 0.983.

Question: How did the relative growth turn out when `CC1=C(/C=C/C(C)=C/C=C/C(C)=C\C(=O)O)C(C)(C)CCC1` was run?
Answer: The relative growth was inactive: 0.985.

Question: For `C[C@@H]1CCCCO[C@H](CN(C)S(=O)(=O)c2ccc(Cl)cc2)[C@@H](C)CN([C@H](C)CO)C(=O)c2cc(NC(=O)Cc3ccccc3)ccc2O1`, which relative growth is on record?
Answer: The relative growth was inactive: 1.01.

Question: Which relative growth does the source give for `C[C@@H]1CC=CC[C@@H](c2cccc(Cl)c2)NC(=O)[C@@H](Cc2ccccc2)N(C)C(=O)c2ccccc2O1` here?
Answer: The relative growth was inactive: 0.956.

Question: Which relative growth does the source give for `COc1ccc(S(=O)(=O)Nc2ccc3c(c2)C(=O)N([C@@H](C)CO)C[C@@H](C)[C@H](CN(C)C(=O)Nc2cccc4ccccc24)OCCCC[C@H](C)O3)cc1` here?
Answer: The relative growth was inactive: 1.01.

Question: For `C[C@H]1CN([C@@H](C)CO)C(=O)c2cccc(NS(=O)(=O)c3cn(C)cn3)c2O[C@H]1CN(C)Cc1ccc2c(c1)OCO2`, which relative growth is on record?
Answer: The relative growth was inactive: 0.967.

Question: Which relative growth does the source give for `C[C@@H]1CN([C@H](C)CO)C(=O)CCCn2nncc2CO[C@H]1CN(C)S(=O)(=O)c1ccc(Oc2ccccc2)nc1` here?
Answer: The relative growth was inactive: 1.01.

Question: For `COc1ccc([C@H]2C/C=C\C[C@@H](c3cccc(Cl)c3)NC(=O)[C@H](c3ccccc3)CC(=O)N2)c(OC)c1`, which relative growth is on record?
Answer: Its relative growth is inactive: 0.984.

Question: How did the relative growth turn out when `C[C@@H]1CCCCO[C@@H](CN(C)CC2CCCCC2)[C@H](C)CN([C@@H](C)CO)C(=O)c2cc(NC(=O)CCCN(C)C)ccc2O1` was run?
Answer: Its relative growth is inactive: 0.974.

Question: For `NCc1ccc(-c2nc3ccccc3o2)cc1`, which relative growth is on record?
Answer: Its relative growth is inactive: 1.01.

Question: With `COc1cc(/C=C/C(=O)CC2=N/C(=N/c3ccc(OC)c(OC)c3)S[C@H](c3ccc(O)c(OC)c3)C2)ccc1O` as the molecule, how does the relative growth read?
Answer: The relative growth was inactive: 1.

Question: Which relative growth does the source give for `COc1ccc(NC(=O)Nc2ccc3c(c2)C(=O)N([C@@H](C)CO)C[C@@H](C)[C@H](CN(C)C(=O)Nc2ccc(F)cc2)OCCCC[C@@H](C)O3)cc1` here?
Answer: Its relative growth is inactive: 1.04.

Question: How did the relative growth turn out when `C[C@@H]1CN([C@@H](C)CO)C(=O)c2cc(NC(=O)Nc3ccc4c(c3)OCO4)ccc2O[C@@H](C)CCCCO[C@H]1CN(C)C(=O)Nc1ccc(C(F)(F)F)cc1` was run?
Answer: The relative growth was inactive: 1.03.

Question: For `CCOC(=O)c1[nH]c(C)c(C(=O)C2=C(O)C(=O)N(CCN3CCOCC3)[C@H]2c2cccc(OC)c2OC)c1C`, which relative growth is on record?
Answer: Its relative growth is inactive: 0.996.

Question: Which relative growth does the source give for `Cc1cc(C(=O)Nc2cccc3c2O[C@H](CN(C)S(C)(=O)=O)[C@@H](C)CN([C@H](C)CO)C3=O)n(C)n1` here?
Answer: The relative growth was inactive: 0.984.

Question: How did the relative growth turn out when `C[C@H](CO)N1C[C@H](C)[C@H](CN(C)C(=O)NC2CCCCC2)OCCCC[C@H](C)Oc2ccc(NC(=O)Nc3cccc4ccccc34)cc2C1=O` was run?
Answer: The relative growth was inactive: 1.04.

Question: For `C[C@@H]1CN([C@@H](C)CO)C(=O)c2cc(NC(=O)CCC(F)(F)F)ccc2O[C@H]1CN(C)Cc1ccc(-c2ccccc2)cc1`, which relative growth is on record?
Answer: The relative growth was inactive: 0.986.

Question: For `Cc1noc(C)c1S(=O)(=O)Nc1ccc2c(c1)CC(=O)N([C@H](C)CO)C[C@@H](C)[C@@H](CN(C)C(=O)NC(C)C)O2`, which relative growth is on record?
Answer: Its relative growth is inactive: 1.04.

Question: Which relative growth does the source give for `S=C1NCN(Cc2ccncc2)CN1` here?
Answer: The relative growth was inactive: 0.997.

Question: How did the relative growth turn out when `C[C@H](NC(=O)C[C@@H]1CC[C@H](NC(=O)CN2CCOCC2)[C@@H](CO)O1)c1ccccc1` was run?
Answer: The relative growth was inactive: 0.976.

Question: How did the relative growth turn out when `C[C@@H]1CN([C@H](C)CO)C(=O)c2ccccc2-c2ccccc2CO[C@@H]1CN(C)Cc1ccc(-c2ccccc2)cc1` was run?
Answer: Its relative growth is inactive: 1.03.

Question: How did the relative growth turn out when `NC(=O)[C@@H]1C(=O)C[C@@H]2C[C@@H]3Cc4cccc(O)c4C(=O)[C@@H]3C(=O)[C@]2(O)C1=O` was run?
Answer: The relative growth was active: 0.164.

Question: How did the relative growth turn out when `C[C@@H]1CN([C@H](C)CO)C(=O)c2cc(NS(=O)(=O)c3cccs3)ccc2O[C@@H](C)CCCCO[C@@H]1CN(C)Cc1ccc(C(F)(F)F)cc1` was run?
Answer: The relative growth was inactive: 1.09.

Question: `C[C@@H]1CN([C@H](C)CO)C(=O)c2cc(NC(=O)Nc3ccc(C(F)(F)F)cc3)ccc2O[C@@H]1CN(C)Cc1ccc2c(c1)OCO2` was tested. Which relative growth did it give?
Answer: The relative growth was inactive: 0.959.

Question: How did the relative growth turn out when `C[C@@H]1CN([C@@H](C)CO)S(=O)(=O)c2ccc(-c3cccnc3)cc2O[C@H]1CN(C)C(=O)c1cccc(F)c1` was run?
Answer: The relative growth was inactive: 1.02.

Question: `Cc1noc(C)c1S(=O)(=O)Nc1ccc2c(c1)CC(=O)N([C@@H](C)CO)C[C@H](C)[C@@H](CN(C)S(=O)(=O)c1ccc(F)cc1)O2` was tested. Which relative growth did it give?
Answer: The relative growth was inactive: 1.

Question: For `C[C@H]1CN([C@@H](C)CO)C(=O)c2cccc(NS(=O)(=O)c3ccccc3)c2O[C@H]1CN(C)C(=O)Nc1cccc2ccccc12`, which relative growth is on record?
Answer: The relative growth was inactive: 0.997.

Question: Which relative growth does the source give for `C[C@H](CO)N1C[C@H](C)[C@H](CN(C)Cc2ccccc2)Oc2c(NC(=O)C3CCOCC3)cccc2C1=O` here?
Answer: The relative growth was inactive: 0.995.

Question: For `C[C@@H]1CN([C@H](C)CO)C(=O)Cc2cc(NC(=O)Nc3cccc4ccccc34)ccc2O[C@H]1CN(C)Cc1ccc(C(=O)O)cc1`, which relative growth is on record?
Answer: Its relative growth is inactive: 0.988.

Question: For `COCC(=O)N1C[C@]2(C1)CN([C@@H](CO)c1[nH]c3cc(ccc3c12)OC)S(=O)(=O)C`, which relative growth is on record?
Answer: Its relative growth is inactive: 1.01.

Question: `C[C@H](CO)N1C[C@H](C)[C@@H](CN(C)C(=O)Nc2cccc3ccccc23)OCCCC[C@H](C)Oc2ccc(NS(=O)(=O)c3ccccc3)cc2C1=O` was tested. Which relative growth did it give?
Answer: Its relative growth is inactive: 1.03.

Question: Which relative growth does the source give for `CN1CCN(C(=O)C[C@H]2CC[C@H]3[C@@H](COc4ccc(NC(=O)c5cscn5)cc4C(=O)N3C)O2)CC1` here?
Answer: Its relative growth is inactive: 1.02.

Question: How did the relative growth turn out when `C[C@@H]1CN([C@@H](C)CO)C(=O)c2cc(C#Cc3ccccc3F)cnc2O[C@@H]1CN(C)C(=O)c1ccc2c(c1)OCO2` was run?
Answer: The relative growth was inactive: 1.02.

Question: `CC(=O)NCCCC[C@@H]1NC(=O)[C@H]2C[C@@H](C(=O)NCCCCCCN(C)C)[C@@H](c3ccc(O)cc3)N2C1=O` was tested. Which relative growth did it give?
Answer: Its relative growth is inactive: 0.947.

Question: How did the relative growth turn out when `C[C@H](CO)N1C[C@H](C)[C@H](CN(C)C(=O)Nc2ccc(C(F)(F)F)cc2)OCCCC[C@H](C)Oc2ccc(NC(=O)CCC(F)(F)F)cc2C1=O` was run?
Answer: The relative growth was inactive: 0.973.

Question: How did the relative growth turn out when `O=C1c2ccccc2[C@](Cc2ccccc2I)(C(=O)NCc2ccccc2)[C@H](c2ccc(CO)cc2)N1Cc1ccccc1C(F)(F)F` was run?
Answer: Its relative growth is inactive: 1.02.

Question: How did the relative growth turn out when `CCCNC(=O)C[C@@H]1CC[C@@H]2[C@H](COc3ccc(NC(=O)c4ccc5c(c4)OCO5)cc3C(=O)N2C)O1` was run?
Answer: Its relative growth is inactive: 0.984.

Question: For `CCCCOc1ccc([C@@H]2c3c(oc4ccc(Br)cc4c3=O)C(=O)N2CCCN2CCOCC2)cc1`, which relative growth is on record?
Answer: Its relative growth is inactive: 0.975.

Question: `NC(=O)c1ccc[n+](CC(=O)c2ccccc2)c1` was tested. Which relative growth did it give?
Answer: The relative growth was inactive: 1.03.

Question: How did the relative growth turn out when `COCC(=O)N[C@H]1C=C[C@H](CC(=O)N2CCCCC2)O[C@H]1CO` was run?
Answer: The relative growth was inactive: 0.976.

Question: `C[C@@H]1CN([C@H](C)CO)C(=O)c2cccc(NS(=O)(=O)c3ccc(F)cc3)c2O[C@H]1CN(C)S(=O)(=O)c1cccs1` was tested. Which relative growth did it give?
Answer: The relative growth was inactive: 0.996.

Question: With `C[C@@H]1CN([C@@H](C)CO)C(=O)c2cc(NC(=O)Nc3ccccc3)ccc2O[C@@H](C)CCCCO[C@@H]1CN(C)Cc1ccc2c(c1)OCO2` as the molecule, how does the relative growth read?
Answer: Its relative growth is inactive: 0.975.

Question: How did the relative growth turn out when `CC(C)NC(=O)N(C)C[C@@H]1Oc2c(NC(=O)Nc3ccc4c(c3)OCO4)cccc2C(=O)N([C@H](C)CO)C[C@@H]1C` was run?
Answer: Its relative growth is inactive: 0.996.

Question: For `C[C@@H]1CN([C@@H](C)CO)S(=O)(=O)c2ccc(C#CC3CC3)cc2O[C@@H]1CN(C)C(=O)c1cccc(F)c1`, which relative growth is on record?
Answer: Its relative growth is inactive: 1.06.

Question: For `COc1ccc(NC(=O)Nc2ccc3c(c2)C(=O)N([C@@H](C)CO)C[C@@H](C)[C@@H](CN(C)Cc2ccc4c(c2)OCO4)OCCCC[C@@H](C)O3)cc1`, which relative growth is on record?
Answer: Its relative growth is inactive: 0.988.

Question: Which relative growth does the source give for `C[C@@H]1CCCCO[C@@H](CN(C)C(=O)Nc2cccc3ccccc23)[C@H](C)CN([C@@H](C)CO)C(=O)c2cc(NC(=O)Nc3ccc4c(c3)OCO4)ccc2O1` here?
Answer: Its relative growth is inactive: 1.06.

Question: `C[C@@H]1CCCCO[C@H](CN(C)C(=O)Nc2ccccc2)[C@@H](C)CN([C@H](C)CO)C(=O)c2cc(NC(=O)Nc3cccc4ccccc34)ccc2O1` was tested. Which relative growth did it give?
Answer: Its relative growth is inactive: 0.977.

Question: How did the relative growth turn out when `COc1ccc(CN(C)C[C@H]2Oc3ccc(NC(=O)Nc4cccc5ccccc45)cc3CC(=O)N([C@@H](C)CO)C[C@H]2C)cc1` was run?
Answer: The relative growth was inactive: 0.991.

Question: Which relative growth does the source give for `C[C@@H]1CN([C@@H](C)CO)C(=O)c2cc(NC(=O)CCN3CCOCC3)ccc2O[C@@H]1CN(C)S(=O)(=O)c1ccccc1` here?
Answer: The relative growth was inactive: 0.994.

Question: With `CO[C@@H]1CN(C)C(=O)c2ccc(NC(=O)Nc3ccc4c(c3)OCO4)cc2OC[C@@H](C)N(C(C)=O)C[C@H]1C` as the molecule, how does the relative growth read?
Answer: Its relative growth is inactive: 1.
